# Test results as given in PubChem BioAssay AID1508642 (National Center for Advancing Translational Sciences (NCATS), 2021).
# The whole screen tested about 43,000 compounds, of which about 200 (0.47%) were called active. Not shown: some 12% with an inconclusive outcome. The call rests on the fitted dose curve; in most records, active means well fitted cell-killing curve with a large enough effect; inconclusive means small, poorly fitted or top-dose-only effect, or effect the other way; inactive means flat fitted curve, though single readings scatter. The list shows a part of the results.
# Assay: Cell viability qHTS assay in S16 Pmp22-F2sN cells; further: nearly all actives have a fitted effect of over 65% in size
# Settings: S16 Pmp22-F2sN Schwann cells viability, CellTiter-Glo, 24 h; series mostly up to 57.5 µM; activity change, negative = cytotoxicity: at the top concentration
# In short: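 Used to flag compounds lowering reporter output through toxicity, this quantitative HTS measures ATP-based CellTiter-Glo luminescence in S16 Pmp22-F2sN Schwann cells after 24 h compound exposure at 37C.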
# On the % scale 0 is the no-effect control and ±100 the full control effect.
row,SMILES,"activity change, negative = cytotoxicity"
1,Cc1ccc(C(=O)NCCn2c(C)cc3ccccc32)cc1C,inactive: 14.5%
2,Cc1cc(C)cc(-n2nnc(-c3nc(-c4ccc5c(c4)OCO5)no3)c2C)c1,inactive: 1.85%
3,COc1cccc(C(=O)NCCSc2c(-c3ccc(F)cc3)[nH]c3ccccc23)c1OC,inactive: -23.8%
4,Cc1ccc(CNC(=O)C2CCCN(S(=O)(=O)c3ccc4c(c3)oc(=O)n4C)C2)cc1 (stereo not drawn),inactive: 2.94%
5,CC(Oc1ccc(F)cc1)C(=O)NCC1(N(C)C)CCCCC1 (stereo not drawn),inactive: -2.3%
6,Cc1ccc(S(=O)(=O)c2cn(CC(=O)Nc3ccc(C)c(Cl)c3)c3ccc(C)cc3c2=O)cc1,inactive: 6.15%
7,Cc1c(NC(=O)c2ccc(OC(C)C)cc2)cccc1-c1nc2ncccc2o1,inactive: 2%
8,CC(C)Cn1c(=O)c2ccccc2n2c(CCC(=O)Nc3cccc(Cl)c3)nnc12,inactive: 0.542%
9,CCOC(=O)c1cnc2cc(-c3ccc(Cl)cc3)nn2c1-c1ccccc1,inactive: 8.65%
10,CC(=O)c1cc(-c2ccccc2)n(CC(=O)NC2CCCCC2)c1C,inactive: 3.08%
11,O=C(Cc1ccc(F)cc1)NC1CC(=O)N(c2ccccc2)C1 (stereo not drawn),inactive: 0.99%
12,CCOc1ccc(Cn2nnc3c(=O)[nH]c(C4CCN(C(=O)c5ccccc5)CC4)nc32)cc1,inactive: -19.6%
13,O=C1Nc2c(c(=O)[nH]c(=O)n2-c2ccccc2)C1(NS(=O)(=O)c1ccc(Cl)cc1)C(F)(F)F (stereo not drawn),inactive: 3.98%
14,CCCOc1ccc(-c2nn(-c3ccccc3)cc2C2NC(=O)NC(C)=C2C(=O)OC(C)C)cc1 (stereo not drawn),inactive: -6.88%
15,CC1CCCCN1CCCNC(=O)Cn1ncc2c([nH]c3ccccc32)c1=O (stereo not drawn),inactive: 8.48%
16,Cc1cccc(CNS(=O)(=O)c2ccc3[nH]c(=O)ccc3c2)c1,inactive: 18.2%
17,CCC(CC)c1nn2c(=O)cc(COc3ccc(NC(=O)c4ccccc4Cl)cc3)nc2s1,inactive: 19%
18,NC(=O)c1cc(S(=O)(=O)N2CCN(c3ccc(F)cc3)CC2)cs1,inactive: -4.01%
19,Cc1ccccc1CNC(=O)C1CCN(c2nn3cc(-c4ccc(F)cc4)nc3s2)CC1,inactive: 2.42%
20,COc1ccc(Cn2c(=O)[nH]c3cc(C(=O)N4CCN(c5cc(C)ccc5C)CC4)ccc3c2=O)cc1,inactive: -13.6%
21,COc1ccc(C)cc1NC(=O)c1cc(S(=O)(=O)NC2CCCCCC2)ccc1F,inactive: -15.7%
22,O=C(Nc1ccc(Br)cc1)C1CCN(c2cnccn2)CC1,inactive: -16.1%
23,COc1cc(OC)c(Nc2cc(C)nc3ncnn23)cc1Cl,inactive: -7.73%
24,CCc1nn2c(=O)cc(COC(=O)CNC(=O)c3ccccc3)nc2s1,inactive: -19.1%

row,SMILES,"activity change, negative = cytotoxicity"
1,O=C(COc1ccccc1F)OCc1cc(=O)n2nc(-c3cccs3)sc2n1,inactive: -36.9%
2,CCC(C(=O)N1CCN(c2ccccc2)CC1)n1nc(C)n2c(cc3sccc32)c1=O (stereo not drawn),inactive: -19.8%
3,CCOc1ccc(C(=O)Nc2cccc(NC(=O)c3ccco3)c2)cc1Cl,inactive: -20%
4,COc1ccccc1CNC(=O)c1ccc(N2CCCC2)c(NC(=O)NCc2ccccc2)c1,inactive: 6.99%
5,CCN(CC)S(=O)(=O)c1nnc(NC(=O)COc2ccccc2Cl)s1,inactive: 3.62%
6,COc1ccc(OC)c(NC(=O)CSc2ccnc(=O)[nH]2)c1,inactive: -2.94%
7,COc1ccccc1-c1cc(C(=O)Nc2sc3c(c2C#N)CCCC3)no1,inactive: 3.77%
8,Cn1c(=O)oc2cc(S(=O)(=O)CCC(=O)N3CCN(c4ccccc4)CC3)ccc21,inactive: -4.03%
9,CCOc1ccc(CCNC(=O)CN2C(=O)C(CC)Oc3ccccc32)cc1OCC (stereo not drawn),inactive: 8.44%
10,COc1ccc(C2CC(c3c(O)n(C4CCCCC4)c(=O)[nH]c3=O)=Nc3ccccc3S2)cc1 (stereo not drawn),inactive: -0.846%
11,Cc1ccc2c(c1)NC(=O)C(CC(=O)Nc1cc(Cl)ccc1C)O2 (stereo not drawn),inactive: 3.83%
12,CCOC(=O)C1CCCN(c2nc3c(S(=O)(=O)c4ccc(C)c(C)c4)nnn3c3ccc(Cl)cc23)C1 (stereo not drawn),inactive: -2.59%
13,CCn1c(=O)c2sccc2n2c(CCC(=O)Nc3cc(C)cc(C)c3)nnc12,inactive: -7.46%
14,COc1cccc(C(=O)Nc2cc3c(cc2C(=O)c2ccc(C)cc2)OCCO3)c1,inactive: -1.73%
15,COc1ccc(-c2nc(CS(=O)CC(=O)NCc3ccccc3OC)c(C)o2)cc1 (stereo not drawn),inactive: -18.3%
16,COc1ccc2c(c1)CC(C(=O)NCCCN1CCN(c3ccc(F)cc3)CC1)CO2 (stereo not drawn),inactive: -0.136%
17,COc1cccc(N2CCN(C(=O)C3CCN(S(=O)(=O)c4ccc5c(c4)oc(=O)n5C)CC3)CC2)c1,inactive: 10.1%
18,Cn1c(=O)oc2cc(S(=O)(=O)Nc3ccc(C(=O)O)cc3)ccc21,inactive: -3.55%
19,Cc1cc(C)c2c(CC(=O)N(Cc3ccccc3)C3CCS(=O)(=O)C3)coc2c1 (stereo not drawn),inactive: -3.22%
20,Cc1cc(C)cc(OCC(=O)Nc2ccc(-c3nc4ccccc4o3)cc2)c1,inactive: 15.9%
21,COc1ccccc1CNC(=O)c1ccc(-c2nc(CN3CCc4ccccc43)c(C)o2)cc1,inactive: -6.29%
22,COc1ccc(NC(=O)c2cccn2-c2nnc(N3CCCCC3)s2)cc1,inactive: -13.4%
23,CCCSCCCNC(=O)c1ccc2nc(Cc3ccccc3)oc2c1,inactive: -22.3%
24,CCc1ccc(CNC(=O)CN2CCSc3ccccc32)cc1,inactive: -19.2%
